# Test results: PubChem BioAssay (NCATS)
# Several values for one entry are separate records, joined by “and”; a condition that tells them apart may be missing. Identical values can stand only once. Inconclusive results, whose numbers are uncertain, are shown with a selection of clear calls. Potencies of inconclusive entries are doubtful fits and often do not repeat. Activity calls are given as the source filed them. Calls follow the shape of the dose curve; as a rule, active = well fitted cell-killing curve with a large enough effect; inconclusive = small, poorly fitted or top-dose-only effect, or effect the other way; inactive = no such curve, though single readings can be large or run the other way.
# Legend:
# [1] = Viability qHTS for spleen associated tyrosine kinase inhibitor (SYKi) naive MV4-11 cells (AID 1963823); settings: MV4-11 AML viability, CellTiter-Glo luminescence, 72 h; viability (% of control): at 45 µM (top of the series); also: nearly all actives have a fitted effect of over 40% in size
# Method in brief: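 Viability of MV4-11 AML cells lacking prior SYK inhibitor exposure is scored by CellTiter-Glo luminescence following 72 hr compound incubation at 37 C, 5% CO2, seeded at 500 cells per well.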
# [2] = Viability qHTS for spleen associated tyrosine kinase inhibitor (SYKi) drug resistant MV4-11 cells (AID 1963824); also: nearly all actives have a fitted effect of over 35% in size
# Method in brief: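 SYK inhibitor-resistant MV4-11 AML cells, 500 per well, added to predispensed compounds and incubated 72 hr at 37 C, 5% CO2. Viability measured by CellTiter-Glo luminescence after 10 min at room temperature.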
# Potency is read from the fitted curve at half-maximal effect; tags tell the direction and shape of the fitted curve.
Compound,Potency [1],Potency [2],viability (% of control) [1],"viability, % of control [2]"
C/C=C/c1cc(OC)c2c(c1)[C@@H](C)[C@@H](c1ccc(O)c(OC)c1)O2,"inconclusive: 20.2 µM [cytotoxic, single point]","inconclusive: 16.1 µM [cytotoxic, single point]",,
Nc1nonc1-c1nc2cnccc2n1C1CCCCC1,active: 0.517 µM,active: 0.731 µM,,
COc1ccc2cc1Oc1cc3c(cc1OC)CC[N+](C)(C)[C@H]3Cc1ccc(cc1)Oc1c(OC)c(OC)cc3c1[C@@H](C2)[N+](C)(C)CC3,inactive,inactive,,
C[C@@H]1CN(Cc2ccccc2)C[C@H]1c1nc2c(cnn2C2CCOCC2)c(=O)[nH]1,"inconclusive: 4.61 µM [cytotoxic, full curve, poor fit]","inconclusive: 0.184 µM [cytotoxic, full curve, poor fit]",,
Clc1ccc(CN[C@H]2CCN(c3ncc(Br)cn3)C2)c(Cl)c1,"inconclusive: 16.4 µM [cytotoxic, partial curve]","inconclusive: 23.1 µM [cytotoxic, partial curve, poor fit]",,
COc1c(C)cnc(Cn2cc(C#CCC(C)(C)O)c3c(Cl)nc(N)nc32)c1C,active: 0.0116 µM,active: 0.0206 µM,,
NS(=O)(=O)c1cccc(N=Cc2c(O)[nH]c3ccccc23)c1,"inconclusive: 0.82 µM [cytotoxic, full curve]","inconclusive: 2.06 µM [cytotoxic, full curve]",,
CC1CC(=O)C2=C(CCC3(O)C(O)c4c(O)cccc4C(=O)C23O)C1 (stereo not drawn),"inconclusive: 1.43 µM [cytotoxic, partial curve, poor fit]","inconclusive: 6.4 µM [cytotoxic, partial curve, poor fit]",,
COc1cc(/C=C/CO)ccc1O[C@@H]1O[C@H](CO)[C@@H](O)[C@H](O)[C@H]1O,inactive,"inconclusive: 0.255 µM [cytotoxic, full curve, poor fit]",,
O=C(O)c1ccc2c3c1cccc3c(=O)n1c3ccccc3nc21,"inconclusive: 2.06 µM [cytotoxic, full curve]",inactive,,
Nc1nonc1C(=Nc1ccc(F)c(Cl)c1)NO,"inconclusive: 9.2 µM [cytotoxic, partial curve]","inconclusive: 11.6 µM [cytotoxic, partial curve, poor fit]",,
C[C@H](CCC(=O)O)[C@H]1CC[C@H]2[C@@H]3[C@H](O)C[C@@H]4C[C@H](O)CC[C@]4(C)[C@H]3CC[C@]12C,inactive,"inconclusive: 5.25 µM [cytotoxic, partial curve, poor fit]",,
C=C(COC(=O)C(C)C)C1Oc2cc(C(C)=O)ccc2C1OC(=O)C(C)C (stereo not drawn),"inconclusive: 10.1 µM [cytotoxic, single point]",inactive,,
OCCn1cc(-c2ccc3c(c2)CC/C3=N\O)c(-c2ccncc2)n1,active: 16.4 µM,active: 18.6 µM,,
CC(C)CC(=O)O[C@@H]1O[C@H](CO)[C@@H](O[C@H]2O[C@H](C)[C@@H](N[C@H]3C=C(CO)[C@@H](O[C@H]4O[C@H](CO)[C@@H](O[C@H]5O[C@H](CO)[C@@H](O[C@H]6O[C@H](CO)[C@@H](O)[C@H](O)[C@H]6O)[C@H](O)[C@H]5O)[C@H](O)[C@H]4O)[C@H](O)[C@H]3O)[C@H](O)[C@H]2O)[C@H](O)[C@H]1O,,,inactive: 82.5% [at 9.25 µM],inactive: 101% [at 9.25 µM]
COc1ccc(S(=O)(=O)Nc2cc(Cl)cc(Cl)c2OC)cc1N1CCNCC1,"inconclusive: 13 µM [cytotoxic, partial curve, poor fit]","inconclusive: 16.4 µM [cytotoxic, partial curve]",,
C=C(C)[C@@H]1CC[C@]2(CO)CC[C@]3(C)[C@H](CC[C@@H]4[C@@]5(C)CC[C@H](O)C(C)(C)[C@@H]5CC[C@]43C)[C@@H]12,"inconclusive: 8.93 µM [cytotoxic, single point]","inconclusive: 15.9 µM [cytotoxic, single point]",,

Compound,Potency [1],Potency [2],viability (% of control) [1],"viability, % of control [2]"
CC(=O)Nc1ccc(S(=O)(=O)Nc2ccc([N+](=O)[O-])cc2)cc1,"inconclusive: 21.1 µM [cytotoxic, partial curve]","inconclusive: 21.1 µM [cytotoxic, partial curve, poor fit]",,
CCOc1ccccc1OCC1CNCCO1 (stereo not drawn),inactive,inactive,,
COc1c(-c2ccc(O)cc2)cc(OC)c2c1oc1cc(O)c(OC3OC(CO)C(O)C3O)cc12 (stereo not drawn),"inconclusive: 11.2 µM [cytotoxic, partial curve, poor fit]","inconclusive: 11.2 µM [cytotoxic, partial curve]",,
CCN(c1cc(C#CCN2CCOCC2)cc(C(=O)NCc2c(C)cc(C)[nH]c2=O)c1C)C1CCC(N(C)CCOC)CC1 (stereo not drawn),inactive,inactive,,
C=C[C@@]1(C)CC(=O)[C@]2(O)[C@@]3(C)[C@@H](O)CCC(C)(C)[C@@H]3[C@H](O)[C@H](OC(C)=O)[C@@]2(C)O1,"inconclusive: 9.44 µM [cytotoxic, partial curve]","inconclusive: 23.7 µM [cytotoxic, single point]",,
CCCc1cc(C)n(C)c(=O)c1CN(C)C(=O)c1cc(-c2ccc(N3CCN(C(C)C)CC3)nc2)cc2c1cnn2C(C)C,inactive,"inconclusive: 10.3 µM [cytotoxic, partial curve, poor fit]",,
O=c1c2cccnc2n(-c2cccc([N+](=O)[O-])c2)c(=O)n1Cc1ccncc1,inactive,inactive,,
O=C1CC(c2ccc(Cl)cc2)CC(=O)N1,inactive,inactive,,
COc1cc2c(cc1OC)/C(=C/c1ccc(O)cc1)C(=O)N2,active: 8.2 µM,active: 18.4 µM,,
Cc1nc(C)c(-c2ccc(C3CCC(CC(=O)O)CC3)cc2)nc1C(N)=O (stereo not drawn),"inconclusive: 5.8 µM [cytotoxic, single point]","inconclusive: 6.51 µM [cytotoxic, single point]",,
COC1CC(=O)C23C(=O)NC(CC(C)C)C2C(C)C(C)=CC3/C=C(\C)CCCC1O (stereo not drawn),"inconclusive: 8.93 µM [cytotoxic, partial curve]","inconclusive: 8.93 µM [cytotoxic, partial curve]",,
N#Cc1ccc(C2CCCc3cncn32)cc1 (stereo not drawn),inactive,inactive,,
COc1cccc(OCCCN)c1-c1cc(Nc2cnc(C#N)cn2)n[nH]1,active: 14.6 nM and active: 5.9 nM,"inconclusive: 0.0037 µM [cytotoxic, full curve]",,
COC(=O)c1c(CC=C(C)C)c(OC2OC(CO)C(O)C(O)C2O)c2ccccc2c1OC1OC(CO)C(O)C(O)C1O (stereo not drawn),inactive,inactive,,
C/C=C/C1=CC2=C(CO1)C(=O)[C@](C)(O)[C@H](OC(=O)c1c(O)cc(OC)c(O)c1C)C2,"inconclusive: 8.93 µM [cytotoxic, single point]","inconclusive: 10 µM [cytotoxic, single point]",,
CC1(C)CC[C@]2(C(=O)O)CC[C@]3(C)C(=CCC4[C@@]5(C)CC[C@H](O[C@@H]6O[C@H](C(=O)O)[C@@H](O)[C@H](O)[C@H]6O)C(C)(C)C5CC[C@]43C)C2C1 (stereo partly drawn),"inconclusive: 8.62 µM [cytotoxic, single point]","inconclusive: 10.9 µM [cytotoxic, single point]",,
C[C@@H](c1ccccc1)N(C(N)=NC#N)c1cccc2ncccc12,inactive,"inconclusive: 16.4 µM [cytotoxic, partial curve]",,
